The text below walks through data of the RNAGym collection of RNA variant scans (doi:10.1093/nar/gkz1192).

The labels stand for the following.
B1: CPEB3 Ribozyme (parent)
chain: UAACAGGGGGCCACAGCAGAAGCGUUCACGUCGCAGCCCCUGUCAGAUUCUGGUGAAUCUGCGAAUUCUGCUGUAUAUCUC

The source gives no read counts; variants with many changes may rest on few reads.

In this data set the parent is B1. The data set is described as follows: self-cleavage, relative activity (ratio to wild type); higher = more cleavage; in vitro, sequencing. Summed up:
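CPEB3 self-cleaving ribozyme mutant libraries were made by rounds of error-prone PCR, barcoded, and transcribed in vitro with T7 RNA polymerase for 5 hours at 37°C. Cleavage occurred during transcription and a 15 min DNase I step before EDTA stop. RNAs were reverse transcribed with template switching and Illumina-sequenced, with DNA sequencing mapping barcodes to variants. Relative activity is the variant's cleaved/total read fraction divided by wild type's (minimum 5 reads), averaged across three batches.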
For A15G U31C U41C, the self-cleavage is 0.24. C14U A56G G70A U72A: the self-cleavage stood at 0.28.

A15G U25A U31G C32U U67C A77G: the self-cleavage is 0.06. Regarding A15G U25C A35U A56U, the self-cleavage amounted to 0.05. Then A15G C29U U69A U80A, with 0.13; and C14U A45C U48C U69C U72A, with 0.16. With A15G U26A U54A, the self-cleavage turned out to be 0.75. Then A15G C40A A64G U74C, with 0.45; and A15G G33A A65G, with 0.08; and A15G U25A A47G U58C U66C, with 0.25.

Turning to A15G U41A G53C U69C U78G, the self-cleavage is 0.

For A15G A35G U58A, the self-cleavage was found to be 0.24.

On to A15G A21C U43C C59U A64U A75G U78C, for which the self-cleavage turned out to be 0.11. Then C14U A35G U43C U72A, with 1.25; and A15C U25G A45U U69C, with 0.07; and A15G U41C U69G U74C, with 0.21. Then A15G U26C A45G U48C, with 0.21; and A15G A18G U60C C68A U80C, with 0.08; and A15G U25C C29U U49A A77G, with 0.03. Take A15G A21G U25A U80C: the self-cleavage was found to be 0.5. With A15G A18G U43C the figure was 0.14. Then A15G A18U A20U A21G, with 0.21; and A15G U25C U43A, with 0.09. Then A15G A18U A28G, with 0.31; and A15G A56G U58C C71U A75G A77U, with 0.23.

For the variant A15G U31A A35U G63C, the self-cleavage was 0.24. With C14U G63A U72A the figure was 0.69; with A15G U43A U76C, 1.11. For the variant A15G A21G A47C, the self-cleavage turned out to be 0.42.

On to A15G C38A U69C, for which the self-cleavage stood at 0.16.

With A15C A18G U43G U49A, the self-cleavage was 0.09. For A15C U41G U49C A77U U80A, the self-cleavage turned out to be 0.24.

A15G A21G U26A A65G U72C U80G: the self-cleavage was determined as 0.05. With A15G G33A U43C the figure was 0.23. Consider A15G C39U U41G U43C U48C C62A, for which the self-cleavage is 0.3. Then C14U U54C U72C U78C, with 1.21; and C14U U26A U41C U60C, with 0.43; and A15C U26C A56G, with 0.32. Then A15G G19U C27U A56U U69C U72C, with 0.07; and A15G U41C U72A, with 0.31; and A15G G52A U58C C62G U72A, with 0.19. As to C14U A28U U67C U80C, the self-cleavage was found to be 0.15. Consider A15G A21G C40A, for which the self-cleavage came to 0.35. With A15G G52A A56G the figure was 0.82; with A15G U26A C71A, 0.15; with A15G A28G G30A A35G, 0.04. Turning to A15G A18C U43C, the self-cleavage was 0.38. For the variant A15G C29A A56G U67C, the self-cleavage amounted to 0.06. As for A15G C40U A45G G63U, the self-cleavage stood at 0.62. As for A15G U31A U60C U69A U78C U80C, the self-cleavage worked out at 0.23. For A15G G22A A35C C62U, the self-cleavage was 0.05. Turning to A15G A20U C27U U54C, the self-cleavage is 0.08. As for A15G A21G U48C C68A U78A, the self-cleavage is 0.11. Then A15G G19C A28U U41A U58C U60A, with 0.17; and A15C U49C U58A U67C U69C, with 0.12. Then A15G A35U G70A U74C, with 0.19.

A15G G33U G42U A75G U76G: the self-cleavage turned out to be 0.07. In the case of A15C C39U U54C A57G, the self-cleavage was 0.21. With A15G A35C U43A U49C A57U U78A the figure was 0.25; with A15G U31C U41A U60C A65G, 0.04; with A15G U26C U54A A57U A64G, 0.23. With A15G A56G U69A U74C the figure was 0.23.

As for A15G A45G U67C U80C, the self-cleavage was found to be 0.32. For C14U C23G U49A A56U, the self-cleavage was 0.2. Regarding A15G G19U U31C, the self-cleavage amounted to 0.07. Take A15G A21G U48C U51A A56G: the self-cleavage was determined as 0.07. Take A15G G19U A21U U67C U72A: the self-cleavage was determined as 0.03. Consider A15G U41C C44A A64G U72C U78C, for which the self-cleavage was 0.07. With A15G A35U A56U the figure was 0.14; with A15G U25C U67C U69C, 0.3. Then A15G G22C G63A U66C U69A, with 0.24; and A15G U26A U54A U60A, with 0.09; and A15G U26A A28G C32G U48A U54A U72A, with 0.11. With A15G C23A U41C A45G A57G A65U U80A the figure was 0.15; with C14U C17U U26C U41A C71A, 0.05; with A15G U26G C32U A57G A65G, 0.11. A15G A18G U31C A56G U69C U76C: the self-cleavage is 0.05. Consider A15G A21G U74C, for which the self-cleavage worked out at 0.51.

Regarding A15G A21G U41A U72C, the self-cleavage was 0.32. With A15C U25G C27U U51C G52C U74C the figure was 0.2.

As for A15G A21G C40U U41C A57G U74C U78C, the self-cleavage stood at 0.26. With A15G U31C A64U U74C, the self-cleavage was determined as 0.3. Then A15C A28G A35U U58G, with 0.14; and A15C G33A A64U U78C, with 0.08; and A15G A18U U69C, with 0.17.

As to A15G C40U G70C, the self-cleavage was 0.11. With A15G A47G U60C U78C the figure was 0.14; with A15G U26C U60G A64G, 0.22; with A15G G33A U41A U54C, 0.25. With A15C A28U U43C U60A G63U the figure was 0.11. Then A15C A20G U31A A56G U80A, with 0.15; and A15G C68A U72C A75U, with 0.39; and A15G U26C A45G, with 0.35.

Turning to A15C A35G U41C U49C, the self-cleavage was determined as 0.57. Then A15G U25C U41C A45G, with 0.04; and A15G A56C U72A, with 0.29.

Turning to A15G U26C G30A U41C, the self-cleavage came to 0.08. On to C14U U51G C62U U78C, for which the self-cleavage turned out to be 0.27.

A15C U49C U67C: the self-cleavage is 0.09. Then A15G A18U G42C U66C U80C, with 0.05. With A15G C40A A56U the figure was 0.11; with A15G G16A U25A U66C U72A, 0.05.

Turning to A15G G22C A45U U54C U69A, the self-cleavage was 0.35. For the variant A15G U26A U54A U67C A75G, the self-cleavage is 0.12.

In the case of A15G A28G A35G A45G U72A, the self-cleavage is 0.07. Then A15G A18U A77U, with 0.3. With A15G A45U A65G the figure was 0.2; with C14U A20G A64U U69G, 0.14; with A15G U41A G55A U72C, 0.12. In the case of A15G A28U U72C U76C, the self-cleavage is 1.09. As to A15G U26C U41A, the self-cleavage came to 0.35.

For A15G U26C U41C, the self-cleavage was 0.33.

As to A15G U25A U31C A45G A56G A65G U78C, the self-cleavage turned out to be 0. On to A15G A21G U48G U76A, for which the self-cleavage worked out at 0.35. Then A15C C34G U54C A57G U80A, with 0.08; and A15G G55A U67A U69G U78C, with 0.13; and A15G A47G U69A, with 0.29. A15G A21G A75G: the self-cleavage is 0.37. Then A15G U25C G42U, with 0.09; and A15G U25C U54C G55A U66C A77G, with 0.11; and A15G C32A U41C U72C, with 0.32. As for A15G C17U A21G U41A U69C, the self-cleavage amounted to 0.03.

For the variant A15G C32U A56G A65G, the self-cleavage is 0.04.

In the case of A15G G61A U74C, the self-cleavage amounted to 0.37.

Regarding A15G G42U U43C U51G, the self-cleavage stood at 0.41. Then A15G C37U A45G U58C A65G, with 0.04. As for A15G G16A U25C U41C U54C A65U U80C, the self-cleavage is 0.04.

As for A15G U26C U51A G63U A65U, the self-cleavage is 0.12. With C14U U26C U43C U72C A77G the figure was 0.83. As to A15G C17A U25C A28C, the self-cleavage was found to be 0.4.

For A15G C38U U43C, the self-cleavage was found to be 0.15. Then A15G G19C A21G G63U, with 0.36.

For the variant C14U U31A U43C A45G A75G, the self-cleavage was 0.18. Then A15G A47G C62U U67C U80C, with 0.25; and A15G A35U U41A C59U U66C, with 0.06. Take A15G G36A C81G: the self-cleavage came out at 0.26. For A15G U26A U43C U66C U69A, the self-cleavage was 0.13.

Regarding A15G U26A A75G, the self-cleavage turned out to be 0.75.

On to A15G A56U A75G, for which the self-cleavage stood at 0.39. Then A15G C23U A56G, with 0.1; and A15C U25C G63C A64U U72A, with 0.11; and C14U A18G G19U C23U U31A C62U, with 0.06.

Consider C14U A35C U41A U48A, for which the self-cleavage turned out to be 0.22.

Regarding A15C A45U A56U U69A U74C, the self-cleavage stood at 0.08. With C14U U31A A64U the figure was 0.17; with A15G A18G U41C U67C, 0.13; with A15G A28G U67C U72C U80C, 0.29. With C14U A18G A35G U74C, the self-cleavage is 1.26.

With A15G C38A A56G U66C U76C, the self-cleavage was determined as 0.08. As for A15G A56G U66C, the self-cleavage was 0.35. With A15G A18U A20G U66C, the self-cleavage stood at 0.11. Then A15G A28U U31A A57U A65G U67A, with 0.09; and A15G A18U U43G, with 0.19.

For the variant A15G A18G U41A U48C U76G, the self-cleavage was 0.19.

Regarding A15G A45U A64G U72A, the self-cleavage amounted to 0.2. With A15G U43A U54A U78A the figure was 1. With A15G A18G A21U U25A A45U A56G the figure was 0.08; with A15C U58G C71A U76A A77G, 0.06; with A15C A18G U72A U76C, 0.15. On to A15G U26C U54A U67C, for which the self-cleavage is 0.14.

On to A15G A20G A64C, for which the self-cleavage was 0.29. As to C14U G30A A47G, the self-cleavage was found to be 0.42.

For A15G A45G U49C U67C, the self-cleavage was found to be 0.15. With C14U C34U G52A A57G U60C the figure was 0.25; with C14U U25C A35G A57G, 0.35. For the variant A15G G42C A47U G63U, the self-cleavage was found to be 0.19. In the case of A15G G42U A64G, the self-cleavage came to 0.08.
